PubChem BioAssay AID2675 (National Center for Advancing Translational Sciences (NCATS), 2010)
Out of some 280,000 compounds screened, about 100 (0.036%) were called active. The inconclusive results got no clear call from the source; some entries with a clear call stand among them for comparison. The call rests on the fitted dose curve; in most records, active means well fitted inhibition curve with a large enough effect in the signal ratio, with a control signal flat (not every such curve was filed as active); inconclusive means small, poorly fitted or top-dose-only effect, or effect the other way, or a change in a side signal; inactive means no such curve, though single readings can be large or run the other way; the % refers to the signal ratio. Potencies of inconclusive entries are doubtful fits and often do not repeat. “Side channel” marks fits to a control or component signal instead of the main read-out.

Biological target: Muscleblind-like protein 1 (Homo sapiens) (UniProt Q9NR56)
Test: qHTS Assay for Inhibitors of MBNL1-poly(CUG) RNA binding
Conditions: TR-FRET MBNL1-His/biotin-(CUG)12 binding, 665/545 ratio; series mostly up to 57.5 µM
Procedure, shortened: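 TR-FRET readout: Ex 340 nm, 665/545 nm emission ratio, normalized to buffer-only (basal) and MBNL1-(CUG)12 controls. Complex of MBNL1-His with Biotin-(CUG)12, compounds 92 nM–58 uM, incubated 60 min at room temperature.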
Potency means the concentration at half of the fitted maximal effect; tags describe the fitted curve by direction and shape or compound fluorescence and quenching.

UniProt Q9NR56, sequence (Q9NR56 whole entry, looked up): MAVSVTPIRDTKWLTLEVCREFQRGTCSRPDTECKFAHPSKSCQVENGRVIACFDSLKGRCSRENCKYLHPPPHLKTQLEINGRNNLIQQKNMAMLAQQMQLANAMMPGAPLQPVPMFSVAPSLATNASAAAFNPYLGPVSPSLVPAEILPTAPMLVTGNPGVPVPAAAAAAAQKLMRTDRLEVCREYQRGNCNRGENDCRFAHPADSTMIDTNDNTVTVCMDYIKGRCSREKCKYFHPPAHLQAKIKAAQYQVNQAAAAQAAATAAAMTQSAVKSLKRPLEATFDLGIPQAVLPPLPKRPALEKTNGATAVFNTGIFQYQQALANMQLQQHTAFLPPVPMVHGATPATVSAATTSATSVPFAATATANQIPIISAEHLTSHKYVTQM

With `COc1cccc(OCCNS(=O)(=O)c2cccc([N+](=O)[O-])c2)c1` as the molecule, how does the Potency read?
The Potency was inconclusive: 28.2 µM [quencher, side channel, partial curve].

How did the Potency turn out when `Cc1ccc(C)c(NC(=O)CCC(=O)N/N=C/c2cc([N+](=O)[O-])ccc2O)c1` was run?
The Potency was inconclusive: 15.8 µM [quencher, side channel, partial curve].

Which Potency does the source give for `COc1ccc(-c2nc(C)c(C(C)=O)n2O)cc1[N+](=O)[O-]` here?
Its Potency is inconclusive: 15.8 µM [quencher, side channel, partial curve].

Which Potency does the source give for `Cc1ccc(/C=C2\CCC(C3CCCC3)C2=O)cc1` (centres undefined) here?
The Potency was inconclusive: 1 µM [quencher, side channel, full curve].

How did the Potency turn out when `CCOc1ccc(OCC)c(NC(=O)c2[nH]c(C)c(C(C)=O)c2C)c1` was run?
The Potency was “inactive”.

Which Potency does the source give for `C=CCNC(=O)c1cnc2n(c1=O)CCS2` here?
The Potency was inconclusive: 35.5 µM [fluorescent, side channel, partial curve].

`NS(=O)(=O)c1cccc(NC(=O)COc2ccc([N+](=O)[O-])cc2)c1` was tested. Which Potency did it give?
The Potency was inconclusive: 7.94 µM [quencher, side channel, partial curve].

For `CCC1S/C(=N/N=C/c2ccco2)N(Cc2ccccc2)C1=O` (centres undefined), which Potency is on record?
The Potency was “inactive”.

For `Cc1ccc(/C=C2\Oc3c(ccc(O)c3CN3CCN(C)CC3)C2=O)cc1`, which Potency is on record?
The Potency was inconclusive: 28.2 µM [quencher, side channel, partial curve].

`Cc1nn(-c2ccccc2)c(OC(=O)c2cccs2)c1S(=O)(=O)c1ccc([N+](=O)[O-])cc1` was tested. Which Potency did it give?
Its Potency is inconclusive: 25.1 µM [quencher, side channel, partial curve].

`CS(=O)(=O)O/N=C1\CCCCC1c1ccc([N+](=O)[O-])cc1[N+](=O)[O-]` (centres undefined) was tested. Which Potency did it give?
The Potency was inconclusive: 15.8 µM [quencher, side channel, partial curve].

Which Potency does the source give for `CC1=Nc2ccccc2/C1=C/c1c(N)n2c(S(=O)(=O)C(C)C)nsc2nc1=O` here?
Its Potency is inconclusive: 44.7 µM [quencher, side channel, partial curve, poor fit].

Which Potency does the source give for `CCC(CC)Nc1ccc(C(CC(N)=O)NC(=O)c2ccccc2)cc1[N+](=O)[O-]` (centres undefined) here?
Its Potency is inconclusive: 15.8 µM [quencher, partial curve].

For `Cn1c(=O)c2c(nc(Oc3ccc4ccccc4c3)n2C)n(C)c1=O`, which Potency is on record?
The Potency was “inactive”.

With `O=c1ccc2cc([N+](=O)[O-])c(CCO)cc2o1` as the molecule, how does the Potency read?
Its Potency is inconclusive: 14.1 µM [quencher, side channel, partial curve].

How did the Potency turn out when `CC(=O)COc1ccc2oc(=O)cc(-c3cc4ccccc4o3)c2c1` was run?
The Potency was inconclusive: 12.6 µM [quencher, side channel, partial curve].

`CCC(=O)Nc1ccc(OC)cc1OC` was tested. Which Potency did it give?
The Potency was “inactive”.

Which Potency does the source give for `O=[N+]([O-])c1ccc(-c2nnc3n2CCCCC3)cc1` here?
The Potency was inconclusive: 11.2 µM [quencher, side channel, partial curve].

How did the Potency turn out when `Cc1cccc(NC(=O)c2cccnc2Oc2ccccc2)c1C(=O)O` was run?
The Potency was “inactive”.

How did the Potency turn out when `COc1ccc(-c2nnc(SCC(=O)Nc3ccccc3OC)o2)cc1` was run?
The Potency was “inactive”.

Which Potency does the source give for `COc1ccc(-c2cnc(NCc3cc4c(cc3[N+](=O)[O-])OCO4)n2C)cc1` here?
The Potency was inconclusive: 15.8 µM [activator, single point].

`c1ccc(CC2=NCCN2)cc1` was tested. Which Potency did it give?
The Potency was “inactive”.

Which Potency does the source give for `CC1CCC(NC(=O)CCS(=O)(=O)c2ccc3c(c2)CC(C)N3C(=O)C2CC2)CC1` (centres undefined) here?
The Potency was “inactive”.

With `O=C(CSc1ncn[nH]1)N/N=C/c1ccc(Br)cc1` as the molecule, how does the Potency read?
The Potency was inconclusive: 11.2 µM [quencher, side channel, partial curve].

`Cc1cc2oc(=O)cc(CN3CCN(C/C=C/c4ccccc4)CC3)c2cc1O` was tested. Which Potency did it give?
Its Potency is inconclusive: 12.6 µM [quencher, side channel, partial curve].

Which Potency does the source give for `O=C(C1CCCN1S(=O)(=O)c1cccc2nsnc12)N1CCCCC1` (centres undefined) here?
The Potency was inconclusive: 28.2 µM [quencher, side channel, partial curve].

Which Potency does the source give for `O=C(CSc1nnc(COc2cccc3ccccc23)o1)N1CCN(C(=O)c2ccco2)CC1` here?
The Potency was inconclusive: 6.31 µM [quencher, side channel, single point].

For `Cc1ccc(C2CC2C(=O)NNC(=S)Nc2cccc(Cl)c2)cc1` (centres undefined), which Potency is on record?
The Potency was “inactive”.

For `Clc1ccc(OCCSCc2nc3ccccc3[nH]2)cc1`, which Potency is on record?
Its Potency is “inactive”.

How did the Potency turn out when `COc1cc(/C=N/NC(=O)c2ccc(CSc3nncn3C)cc2)ccc1OCC(=O)N1CC(C)OC(C)C1` (centres undefined) was run?
Its Potency is inconclusive: 25.1 µM [quencher, side channel, partial curve].

How did the Potency turn out when `Cc1cc(NC(=O)CCCN2C(=O)c3cccnc3C2=O)ccc1Br` was run?
Its Potency is inconclusive: 25.1 µM [quencher, side channel, single point].

With `CCOC(=O)N1CCN(Cc2nc(Cc3cccc(C(F)(F)F)c3)no2)CC1` as the molecule, how does the Potency read?
The Potency was inconclusive: 5.01 µM [fluorescent, side channel, single point].

Which Potency does the source give for `O=C(CSc1nnc(SCc2ccc(Cl)cc2)s1)N1CCN(C(=O)c2ccco2)CC1` here?
Its Potency is inconclusive: 7.08 µM [quencher, side channel, single point].

For `Cc1ccc(S(=O)(=O)N2CCCCC2C(=O)O)cc1` (centres undefined), which Potency is on record?
The Potency was inconclusive: 12.6 µM [quencher, side channel, partial curve].

For `COC(=O)c1c(NC(=O)C(=O)N2CCOCC2)sc2c1CCCC2`, which Potency is on record?
Its Potency is “inactive”.

How did the Potency turn out when `CCOC(=O)c1sc(NCc2ccco2)c(-c2nc3ccccc3s2)c1N` was run?
Its Potency is inconclusive: 31.6 µM [fluorescent, side channel, single point].

`O=C(CN1C(=O)S/C(=C\c2ccc(Cl)cc2)C1=O)NCCCn1ccnc1` was tested. Which Potency did it give?
The Potency was inconclusive: 8.91 µM [quencher, side channel, full curve].

Which Potency does the source give for `O=C(c1ccc([N+](=O)[O-])cc1)N1CCN(C(=O)C2CCCCC2)CC1` here?
The Potency was inconclusive: 14.1 µM [quencher, side channel, partial curve].

How did the Potency turn out when `COc1cccc(OC)c1OCCN1CCN(C(c2ccccc2)c2ccccc2)CC1` was run?
The Potency was “inactive”.

With `Cc1cc2[nH]c(=O)c(=O)[nH]c2cc1S(=O)(=O)N1CCN(c2cccc(C(F)(F)F)c2)CC1` as the molecule, how does the Potency read?
Its Potency is “inactive”.

With `Cc1c(Br)c([N+](=O)[O-])nn1CC(=O)N(C)Cc1ccccc1` as the molecule, how does the Potency read?
Its Potency is inconclusive: 22.4 µM [quencher, side channel, single point].

For `COc1ccc(C)cc1NC(=O)c1nnn(Cc2cccc(F)c2)c1N`, which Potency is on record?
Its Potency is inconclusive: 25.1 µM [quencher, side channel, single point].

With `COc1cc(/C=N/NC(=O)c2ccc(=O)[nH]n2)ccc1O` as the molecule, how does the Potency read?
The Potency was inconclusive: 25.1 µM [quencher, side channel, single point].

Which Potency does the source give for `O=C(O)c1ccc(N/N=C/c2ccnc3ccccc23)cc1` here?
The Potency was inconclusive: 14.1 µM [quencher, side channel, partial curve].

With `COc1cc(OC)cc(C(=O)NCc2ccc3c(c2)OCO3)c1` as the molecule, how does the Potency read?
The Potency was “inactive”.

For `Oc1ccc(C=Nc2ccc3ncccc3c2)c(O)c1`, which Potency is on record?
The Potency was inconclusive: 11.2 µM [quencher, side channel, partial curve].

How did the Potency turn out when `Cc1ccc(/C=N/NC(=O)CNC(=O)c2cccs2)cc1` was run?
The Potency was “inactive”.

Which Potency does the source give for `NC(=O)CSc1nc2cc([N+](=O)[O-])ccc2n1-c1cccc(C(F)(F)F)c1` here?
Its Potency is inconclusive: 2.51 µM [quencher, side channel, single point].

`CCOC(=O)c1c(CN2CCOCC2)oc2ccc(OC)cc12` was tested. Which Potency did it give?
Its Potency is inconclusive: 6.31 µM [quencher, side channel, single point].

How did the Potency turn out when `C[n+]1ccccc1/C=C/c1ccc2ncccc2c1` was run?
The Potency was inconclusive: 25.1 µM [quencher, side channel, partial curve].

How did the Potency turn out when `COc1ccccc1CNC(=O)c1ccccc1NS(C)(=O)=O` was run?
Its Potency is “inactive”.

`COc1cc(/C=N/NC2=NCCCCC2)ccc1O` was tested. Which Potency did it give?
The Potency was “inactive”.

With `Cc1cc(C)cc(N2CCN(C(=O)N3CCOCC3)CC2)c1` as the molecule, how does the Potency read?
The Potency was “inactive”.

Which Potency does the source give for `COc1ccc2c(c1)CC(C(=O)Nc1ccc(Cl)cc1)/C(=N/O)O2` (centres undefined) here?
The Potency was “inactive”.

`CCCCCn1c(C(Cc2ccccc2)NC(C)=O)nc2ccccc21` (centres undefined) was tested. Which Potency did it give?
The Potency was inconclusive: 0.708 µM [quencher, side channel, full curve].

For `CS(=O)(=O)Nc1ccc(-c2ccc(/C=C3\SC(N)=NC3=O)o2)cc1`, which Potency is on record?
The Potency was inconclusive: 0.891 µM [quencher, side channel, full curve].

How did the Potency turn out when `Clc1ccc2c(c1)C(N1CCNCC1)=Nc1ccccc1O2` was run?
Its Potency is “inactive”.

For `CCOC(=O)c1cccc(NC(=O)c2cnc3ccccc3n2)c1`, which Potency is on record?
Its Potency is inconclusive: 17.8 µM [quencher, partial curve].

For `COC(=O)/C=C1/S/C(=N/NC(=O)c2ccccc2)NC1=O`, which Potency is on record?
Its Potency is “inactive”.

How did the Potency turn out when `CCOc1cc(/C=C/c2cccc[n+]2C)ccc1OCC(=O)Nc1ccc(C)cc1` was run?
Its Potency is inconclusive: 15.8 µM [quencher, side channel, partial curve].

How did the Potency turn out when `CCN1CCN(c2nnc(-c3ccc(C)cc3)c3ccccc23)CC1` was run?
The Potency was inconclusive: 39.8 µM [fluorescent, side channel, single point].

For `Nc1c(C(=O)NCCN2CCOCC2)c2nc3ccccc3nc2n1CCc1ccccc1F`, which Potency is on record?
Its Potency is inconclusive: 22.4 µM [quencher, side channel, single point].

`O=C(Cn1cnc2ccccc21)N/N=C/c1cccc([N+](=O)[O-])c1` was tested. Which Potency did it give?
Its Potency is inconclusive: 2.51 µM [quencher, side channel, full curve].

For `Nc1ccc(C(=O)C(=O)c2ccc(N)cc2)cc1`, which Potency is on record?
The Potency was inconclusive: 17.8 µM [quencher, side channel, partial curve].
